Assay results: patent EP2998289B1, “COMPOUNDS FOR TARGETING DRUG DELIVERY AND ENHANCING SIRNA ACTIVITY” (NITTO DENKO CORPORATION, priority 2011, dated 2012)

Test system: gp46
Assay: pHSC in vitro assay: gp46/HSP47 mRNA knockdown by siRNA formulations, qRT-PCR
Conditions: read-out: in vitro (pHSC) EC50; 20:20 HEDC:S104 liposome with 2% retinoid conjugate; HSP47 KD at six half-log doses of siRNA

Substance “N1,N19-bis((16S)-16-(3,7-dimethyl-9-(2,6,6-trimethylcyclohex-1-en-1-yl)nonanamido)-24,28-dimethyl-15,22-dioxo-30-(2,6,6-trimethylcyclohex-1-en-1-yl)-4,7,10-trioxa-14,21-diazatriacontyl)-4,7,10,13,16-pentaoxanonadecane-1,19-diamide [satDiVA]” has an IC50 of 14 nM.
